Assay results as given in the supplement of paper PMC10126150.
Values marked as one replicate rest on one cluster of the flow cell; about a third of the high ones do not repeat.

Test system: ATP
Test: switch fluorescence ratio, 500 uM ATP over buffer (Cy3 cluster intensity, sum of 5 cycles each) (fold (ratio)); higher = stronger signal-on switching upon ATP binding; sequences stand for … in TCGTCGGCAGCGTCAGATGTGTATAAGAGACAGTTTTTTTTTTTTTTTTTTTTTTTTT…TC
Settings: aptamer strand: ATP DNA aptamer (quencher-CACCTGGGGGAGTATTGCGGAGGAAGG + anchor), 100 nM annealed; ATP concentration: 500 uM; one replicate
Outline: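 Clusters carrying Cy3-labelled switching strands on a modified Illumina MiSeq flow-cell were annealed to 100 nM quencher-labelled ATP aptamer and imaged in selection buffer. They were imaged again after 15 min with 500 uM ATP at 22 °C, over five buffer/ATP cycles with NaOH stripping and re-annealing in between. For each cluster, the fluorescence ratio is the summed Cy3 intensity of the target cycles divided by that of the buffer cycles, averaged per switch-domain sequence. Clusters outside 100-1000 RFU were left out.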
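Also: ATP exposure 15 min at 22 °C before imaging.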

| Sequence | switch fluorescence ratio |
| --- | --- |
| GAACTTTGAA | 0.999 |
| GAACTTTGTT | 1.05 |
| GAAGACGGTT | 1.04 |
| GAAGAGTCTA | 1.04 |
| GAAGAGTTGG | 0.961 |
| GAAGCAAAAA | 2.8 |
| GAAGCACTGA | 1.2 |
| GAAGCAGAGT | 1.11 |
| GAAGCAGGGT | 1.03 |
| GAAGCATGAG | 1.24 |
| GAAGCCACCT | 0.968 |
| GAAGCCCATT | 0.997 |
| GAAGCCGTA | 0.974 |
| GAAGCGAGTT | 1.08 |
| GAAGCTCTAA | 1.06 |
| GAAGCTGGGA | 0.969 |
| GAAGGAGAGA | 1.18 |
| GAAGGCACTG | 0.961 |
| GAAGGCAGT | 0.999 |
| GAAGGCATAG | 1.08 |
| GAAGGCCAGG | 1.13 |
| GAAGGCGGCC | 1.04 |
| GAAGGCGGGC | 0.943 |
| GAAGGGAAGG | 1.01 |
| GAAGGGCCAC | 0.973 |

| Sequence | switch fluorescence ratio |
| --- | --- |
| GAAGGGTGGT | 0.966 |
| GAAGGGTTGA | 1 |
| GAAGGTAGAC | 1.12 |
| GAAGGTAGTC | 0.947 |
| GAAGGTCAGG | 0.958 |
| GAAGGTGTGA | 1.08 |
| GAAGGTTGGG | 0.992 |
| GAAGGTTTGC | 1.02 |
| GAAGGTTTTG | 0.983 |
| GAAGTCATGC | 1.27 |
| GAAGTCTCAC | 1.05 |
| GAAGTGAGAG | 1.04 |
| GAAGTTACAG | 1.05 |
| GAAGTTGGTA | 0.963 |
| GAAGTTGGTT | 1 |
| GAAGTTTTTC | 1.06 |
| GAATAAAGGC | 0.986 |
| GAATAAATAC | 4.37 |
| GAATAAATGT | 0.988 |
| GAATAGACAG | 0.985 |
| GAATAGTCCG | 1.1 |
| GAATCAGTGA | 0.988 |
| GAATCCACAG | 1.05 |
| GAATCCATAC | 1.24 |
| GAATCCCCCG | 1.1 |

| Sequence | switch fluorescence ratio |
| --- | --- |
| GAATCCTCCG | 3.33 |
| GAATCTGTTG | 0.981 |
| GAATGAAGTT | 0.989 |
| GAATGAGTTA | 0.98 |
| GAATGCCGCA | 1.05 |
| GAATGCCGT | 0.987 |
| GAATGCTCGG | 1.13 |
| GAATGGCGAC | 0.976 |
| GAATGGTATC | 1.01 |
| GAATGTCGAT | 0.962 |
| GAATGTTTAA | 1.02 |
| GAATTAGAA | 1.02 |
| GAATTAGCT | 1.03 |
| GAATTATTAG | 0.989 |
| GAATTCCCAT | 1.01 |
| GAATTCCGCA | 2.15 |
| GAATTCTGAA | 0.975 |
| GAATTGACTA | 1.03 |
| GAATTGGCAA | 1.01 |
| GAATTGGTCA | 0.986 |
| GAATTTACCC | 1.11 |
| GAATTTGCTG | 1.06 |
| GACAAACCGT | 1.15 |
| GACAAAGCCG | 1.11 |
| GACAAATGGA | 1.03 |

| Sequence | switch fluorescence ratio |
| --- | --- |
| GACAATGTA | 1.02 |
| GACAATTTTG | 0.965 |
| GACACACCAT | 1.32 |
| GACACCCGGG | 1.01 |
| GACACGGCTT | 1.03 |
| GACACGGTTG | 1.01 |
| GACACTCA | 1.05 |
| GACAGAGTGG | 0.944 |
| GACAGCAGGA | 1 |
| GACAGCGACC | 1.31 |
| GACAGCTAGT | 1.03 |
| GACAGGGCAA | 1.06 |
| GACAGGTACT | 1.08 |
| GACAGGTCTC | 0.983 |
| GACAGGTGGT | 1.27 |
| GACAGTGATC | 1.1 |
| GACATATTCT | 0.989 |
| GACATCAGAA | 1.03 |
| GACATCGGTC | 1.02 |
| GACATGACAT | 1.01 |
| GACATGATAT | 1.01 |
| GACATGCGTA | 1.04 |
| GACATGGTAG | 1.02 |
| GACATTGGGT | 1.01 |
| GACCACGGAG | 1.03 |

| Sequence | switch fluorescence ratio |
| --- | --- |
| GACCACGGGT | 1.04 |
| GACCACTAGT | 1.02 |
| GACCACTGGA | 1.04 |
| GACCAGAAAT | 1.01 |
| GACCAGGGTT | 1.02 |
| GACCAGGTTG | 1.47 |
| GACCATCCAG | 0.978 |
| GACCATGGTG | 1.14 |
| GACCATTTCA | 1.01 |
| GACCCACGTG | 1.01 |
| GACCCGGTAC | 2.27 |
| GACCCGGTGA | 1.82 |
| GACCCTAATT | 1.02 |
| GACCCTTATA | 1.07 |
| GACCGTATCG | 0.936 |
| GACCGTTACC | 1.49 |
| GACCGTTATA | 1.08 |
| GACCTAACTT | 1.03 |
| GACCTAAGGC | 0.998 |
| GACCTAGTCC | 1.07 |
| GACCTATT | 1 |
| GACCTCTCCT | 1.8 |
| GACCTCTGTG | 1.16 |
| GACCTCTTAA | 0.986 |
| GACCTCTTGA | 0.963 |

| Sequence | switch fluorescence ratio |
| --- | --- |
| GACCTGAAAA | 1 |
| GACCTGTGAC | 1.05 |
| GACCTTCCAT | 1.62 |
| GACGAACGTG | 1.16 |
| GACGACTTTA | 1.07 |
| GACGAGAATA | 1.11 |
| GACGAGGAG | 1.02 |
| GACGAGGGGT | 1 |
| GACGATAACT | 1.16 |
| GACGATCTAT | 0.994 |
| GACGATTTCC | 1.09 |
| GACGCACTAT | 2.73 |
| GACGCAGTTG | 1.19 |
| GACGCCTAGC | 1.29 |
| GACGCCTCGC | 1.15 |
| GACGCTAATT | 2.05 |
| GACGCTTAGC | 1.46 |
| GACGCTTCGT | 1.02 |
| GACGGACAGC | 1.35 |
| GACGGCCAGG | 1.07 |
| GACGGCGAGG | 1 |
| GACGGGGCAC | 1.12 |
| GACGGGGGTC | 1.02 |
| GACGGTCGGT | 0.967 |
| GACGGTGGCC | 0.974 |

| Sequence | switch fluorescence ratio |
| --- | --- |
| GACGTACTGG | 1.32 |
| GACGTAGACT | 1.19 |
| GACGTATGCC | 1.05 |
| GACGTCAGGT | 0.976 |
| GACGTCGTCA | 0.984 |
| GACGTGGGGG | 1 |
| GACGTTGTCG | 1.05 |
| GACTAATCGA | 1 |
| GACTATGTGT | 0.993 |
| GACTCACACA | 1.38 |
| GACTCACATA | 1.33 |
| GACTCGAAAC | 1.19 |
| GACTCGGAGT | 0.998 |
| GACTCGGGAC | 1.24 |
| GACTCTAAAG | 0.987 |
| GACTGACCTG | 0.992 |
| GACTGCCTGG | 1.03 |
| GACTGGAGTC | 1 |
| GACTGTAATG | 1.03 |
| GACTGTATTG | 0.977 |
| GACTGTGATA | 0.989 |
| GACTGTTCAG | 0.964 |
| GACTTACGAC | 1.47 |
| GACTTATGAA | 1.01 |
| GACTTCACTT | 1.18 |

| Sequence | switch fluorescence ratio |
| --- | --- |
| GACTTGATAG | 0.981 |
| GACTTTACGC | 1.28 |
| GACTTTGGAC | 0.991 |
| GACTTTTTTT | 0.992 |
| GAGAAAAAA | 1 |
| GAGAAAAATT | 1 |
| GAGAAACGCC | 1.01 |
| GAGAAATAAA | 0.973 |
| GAGAACGAAC | 1.19 |
| GAGAAGTAAA | 0.984 |
| GAGAATCGTA | 1 |
| GAGAATGGAG | 0.997 |
| GAGAATTACC | 1.05 |
| GAGAATTTTA | 0.995 |
| GAGACCATCG | 1.07 |
| GAGACCTCG | 1.05 |
| GAGACGATCA | 1.04 |
| GAGACGTAAC | 1.12 |
| GAGAGCGATA | 1.3 |
| GAGAGCTGTT | 0.983 |
| GAGATATCA | 1.03 |
| GAGATCCATT | 0.99 |
| GAGATCTAGG | 0.997 |
| GAGATGAGTT | 0.998 |
| GAGATGGT | 0.98 |
